Results as given in PubChem BioAssay AID488969 (Vanderbilt High Throughput Screening Facility, 2010).
The full ranking holds about 110,000 compounds; the median of “z-score” is about -0.1, and the highest 2% start at about 2. Some of the results follow. Calls of active or inactive are those of the source.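 How the source made its calls: active means z-score in the third read window above 3 or below -3; inactive means the rest.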

What follows are compounds tested against Metabotropic glutamate receptor 8 (Rattus norvegicus) (UniProt P70579) (assay: rat mGluR8 modulators via GIRK flux, primary screen, cell-based, thallium flux, HTS (AID 488969)). Settings: HEK293 rat mGluR8, GIRK (G protein-gated inwardly rectifying potassium channel) thallium flux, FluoZin2; at 10 µM; stronger effect = higher value; submaximal glutamate (EC20) added with thallium.
Sequence of UniProt P70579 (P70579 whole entry, looked up): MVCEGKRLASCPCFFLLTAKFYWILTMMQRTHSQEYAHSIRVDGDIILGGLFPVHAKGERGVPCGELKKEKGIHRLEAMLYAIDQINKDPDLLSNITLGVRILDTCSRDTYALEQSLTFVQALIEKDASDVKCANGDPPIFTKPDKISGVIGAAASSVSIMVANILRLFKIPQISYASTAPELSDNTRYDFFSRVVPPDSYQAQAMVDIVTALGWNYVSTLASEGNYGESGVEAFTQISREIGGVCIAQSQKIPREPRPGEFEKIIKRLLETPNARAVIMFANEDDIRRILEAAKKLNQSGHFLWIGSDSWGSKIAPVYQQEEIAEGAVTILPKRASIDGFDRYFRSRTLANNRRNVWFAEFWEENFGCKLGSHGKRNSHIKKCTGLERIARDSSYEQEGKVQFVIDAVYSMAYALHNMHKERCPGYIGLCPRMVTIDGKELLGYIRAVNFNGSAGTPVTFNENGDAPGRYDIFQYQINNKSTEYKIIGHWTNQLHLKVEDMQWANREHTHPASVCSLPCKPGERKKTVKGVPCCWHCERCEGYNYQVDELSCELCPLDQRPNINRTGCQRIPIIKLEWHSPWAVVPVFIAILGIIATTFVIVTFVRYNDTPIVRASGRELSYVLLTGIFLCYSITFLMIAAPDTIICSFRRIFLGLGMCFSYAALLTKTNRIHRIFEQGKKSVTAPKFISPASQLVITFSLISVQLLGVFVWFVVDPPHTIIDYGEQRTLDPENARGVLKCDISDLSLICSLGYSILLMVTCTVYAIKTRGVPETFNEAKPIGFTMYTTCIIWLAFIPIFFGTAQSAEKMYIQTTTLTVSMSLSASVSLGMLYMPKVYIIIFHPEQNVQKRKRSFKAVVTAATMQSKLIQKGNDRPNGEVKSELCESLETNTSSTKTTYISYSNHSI

| Structure (SMILES) | z-score |
| --- | --- |
| CCOC(=O)c1c(NC(=O)CSc2nnc(C)s2)sc2c1CCC(CC)C2 (centres undefined) | -0.265 |
| Cc1cccc(Oc2coc3cc(OC(=O)c4cncc(Br)c4)ccc3c2=O)c1 | 0.545 |
| CC(C)C(NC(=O)/C=C/c1ccc(F)cc1)C(C)C | 0.0433 |
| CC(=O)N/C(=C/c1ccc(OS(=O)(=O)c2ccc(C)cc2)cc1)C(=O)NCCO | -0.101 |
| COc1ccccc1-n1cnc2cc(NCc3cccs3)ccc21 | -0.604 |
| COc1ccc(C2C(C#N)=C(N)Oc3n[nH]c(C)c32)cc1CSc1ccccn1 (centres undefined) | -0.845 |
| C=CCOc1c(Cl)cc(C2NC(=O)NC(C)=C2C(=O)OC)cc1Cl (centres undefined) | -0.332 |
| CCSc1nc(=S)n(CC)c(C)c1C(C)=O | -0.265 |
| COc1ccc(-n2c(C(C)n3nc(C)c([N+](=O)[O-])c3C)n[nH]c2=S)cc1 (centres undefined) | -0.0141 |
| Cc1ccc(NC(=S)NNC(=O)CSc2nc3ccccc3c(=O)n2-c2ccc(C)cc2)cc1 | -0.293 |
| Cc1ccc(-c2nc(CS(=O)CC(=O)NCCCN3CC(C)CC(C)C3)c(C)o2)cc1 (centres undefined) | 0.468 |
| Cc1cc(/C=N\NC(=O)c2cccs2)c(C)n1-c1ccc2ncccc2c1 | -0.00561 |
| O=C(Nc1ccccc1)OCc1cn(-c2ccc(Cl)cc2)nn1 | -0.251 |
| CCOC(=O)COc1cc2c3c(c(=O)oc2cc1C)CCCC3 | -0.732 |
| O=C(NNc1ccccn1)C(=O)NNS(=O)(=O)c1ccc(Cl)cc1 | -0.163 |
| CN1CCC(OC(=O)COc2ccc(C(C)(C)C)cc2)CC1 | 0.712 |
| COc1ccc(-c2nnc(NC(=O)c3cc(C)on3)s2)cc1 | 0.861 |
| CCc1ccc(C(=O)NN(C(=O)c2ccc(CC)cc2)C(C)(C)C)cc1 | -1.47 |
| CC1=CC(C)C2(CO)COC(c3ccccc3O)C1C2C (centres undefined) | -0.388 |
| COc1ccc(N2CCN(Cc3nc4ccsc4c(=O)[nH]3)CC2)cc1 | -0.255 |
| CN(C)c1ccnc(-n2cccc2/C=N/OCc2ccc(F)cc2Cl)c1C#N | -2.63 |
| O=C(c1ccc(S(=O)(=O)N2CCCCCC2)cc1)N1CCC(CN2C(=O)c3cccc4cccc(c34)C2=O)CC1 | -0.676 |

| Structure (SMILES) | z-score |
| --- | --- |
| Cc1nc(SCC(=O)Nc2cc(C)on2)c2c(=O)n(C)c(=O)n(C)c2n1 | 0.363 |
| Cc1cc(NC(=O)c2cnn3c(C(F)(F)F)cc(-c4ccc(Br)cc4)nc23)no1 | 0.863 |
| C/C(=C\C(=O)C(F)(F)F)Nc1ccc(C(F)(F)F)cc1 | 0.143 |
| Cc1ccc(S(=O)(=O)N2CC(O)CC2C(=O)Nc2ccc3c(c2)CCC3)cc1 (centres undefined) | 2.07 |
| Cc1ccc(S(=O)(=O)NC2c3cccc4cccc(c34)C2Sc2nncn2C)cc1 (centres undefined) | 0.0483 |
| CCOc1ccc(/C=C/C(=O)c2c(O)c3ccccc3oc2=O)cc1 | 0.155 |
| Cc1ccccc1NS(=O)(=O)c1ccc(C2CNC(=O)C2)cc1 (centres undefined) | -0.342 |
| Cc1ccc(C(=O)/C=C/Nc2ccc(S(=O)(=O)Nc3onc(C)c3C)cc2)cc1 | 0.422 |
| CCOC(=O)N1CCC(NCCNC(=O)c2cccs2)CC1 | -0.43 |
| O=c1n(Cc2ccc(Cl)cc2)c2sc3c(c2c2ncnn12)CCCC3 | -0.595 |
| O=C(NC(Cc1ccccc1)C(=O)O)C1CCCCC1 (centres undefined) | -0.213 |
| O=C(Cn1nc(Cc2ccncc2)c2ccccc2c1=O)N1CCN(C(=O)c2ccco2)CC1 | active: 3.76 |
| COc1ccc(C(=O)N2CCCC(c3nc(-c4ccc(OC)c(OC)c4)no3)C2)c(OC)c1 (centres undefined) | 1.76 |
| CC(C(=O)N1c2ccc(F)cc2CCC1C)N1C(=O)c2ccccc2C1=O (centres undefined) | 0.386 |
| CCOC(=O)COc1ccc(Cl)cc1C1NC(=O)NC(C)=C1C(C)=O (centres undefined) | 0.17 |
| Cn1c(=NC(=O)C2CC2)sc2cccc(F)c21 | -0.189 |
| Nc1c(C(=O)NCc2ccco2)c2nc3ccccc3nc2n1CCc1ccc(F)cc1 | -0.43 |
| CSc1nsc(SCCN2C(=O)c3ccccc3C2=O)n1 | 0.572 |
| CCOC(=O)c1c(C)sc2c1N(C(=O)CN1CCOCC1)c1cc(Cl)ccc1S2 | -0.13 |
| CO/N=C/NC(=O)NOCc1c(Cl)cccc1Cl | 0.548 |
| O=C(CSc1nc2ccc(Cl)cc2[nH]1)Nc1ccc2c(c1)CCC2 | active: 3.89 |
| COc1ccccc1N1CCN(CC(=O)c2ccc3ccn(C(C)=O)c3c2)CC1 | 1.11 |

| Structure (SMILES) | z-score |
| --- | --- |
| Cc1cc(=O)[nH]c(SCC(=O)Nc2cccc3ccccc23)c1C#N | -0.192 |
| COC(=O)c1ccc(N2CCN(c3ccccc3)CC2)c(NC(=O)C2CC2)c1 | 1.42 |
| O=C(CSCc1ccc([N+](=O)[O-])cc1)NC1CC1 | -0.237 |
| CC/C(=N\NC(=O)CSCc1ccc(Cl)cc1)c1ccc2c(c1)OCCO2 | -0.78 |
| O=C(c1cc(-c2ccco2)on1)N1CCCc2ccccc21 | -0.298 |
| COc1ccc(N2CCN(CC(O)COc3ccc([N+](=O)[O-])cc3)CC2)cc1 (centres undefined) | -0.183 |
| FC(F)(F)c1cc(-c2ccco2)nc(-n2nc(C(F)(F)F)cc2C2CC2)n1 | 0.694 |
| CC(=O)NC1=NN(C(C)=O)C(c2cccs2)S1 (centres undefined) | 0.0978 |
| COC(=O)c1c(NC(=O)C(C)(C)C)sc2c1C(C(=O)OC)CC2 (centres undefined) | -0.141 |
| O=C(c1ccc2c(c1)OCO2)N1CCNc2ccccc2C1 | -0.223 |
| CN(C)C(=O)COC(=O)c1ccccc1Nc1ccc(SC(F)F)cc1 | -0.185 |
| CCCn1c(/N=C/c2ccc3c(c2)OCO3)nc2ccccc21 | -0.708 |
| CNC(=O)/C(C#N)=C/c1c(N(Cc2ccccc2)Cc2ccccc2)nc2c(C)cccn2c1=O | -0.35 |
| Cc1cccc(N=C2NC(=O)/C(=C/C=C/c3ccco3)S2)c1 | 0.7 |
| CN(C(=O)CSCC(=O)O)C1CCCCC1 | 0.559 |
| COc1cc(/C=N/NC(=O)CCn2c3ccccc3c3ccccc32)cc(OC)c1OC | -0.239 |
| Cc1cccc(NC(=O)c2ccccc2Br)n1 | 0.0402 |
| CCOC(=O)c1cnc(SCC)[nH]c1=O | 1.28 |
| CCN(CC)C(=O)CSc1nc2cc(OC)c(OC)cc2c(=O)n1Cc1ccc(Cl)cc1 | -0.315 |
| CCOC(=O)N1CCC(NC(=O)C2CCCN2C(=O)OCc2ccccc2)CC1 (centres undefined) | 0.0559 |
| Cc1cc(Cl)c2ccccc2n1 | -0.123 |
| Cc1ccc(N2CCN(S(=O)(=O)c3ccc(F)c(C)c3)CC2)c(C)c1 | -0.0676 |

| Structure (SMILES) | z-score |
| --- | --- |
| CCCCNC(=O)c1ccccc1NC(=O)CCSc1ccccc1 | -0.316 |
| COc1cc(NC(=S)N2CCN(C(c3ccccc3)c3ccccc3)CC2)cc(OC)c1 | -0.0342 |
| Cn1c(SCC(=O)N2CCN(c3ccccc3)CC2)nnc1-c1ccccc1 | 0.236 |
| O=C1C2ON(c3ccccc3)C(c3ccncc3)C2C(=O)N1c1ccc(N2CCOCC2)cc1 (centres undefined) | -0.522 |
| C/C(=N\Nc1ccccn1)c1ccc(S(=O)(=O)NCc2ccco2)cc1 | -0.376 |
| CN(C)/C=C(\C#N)c1nc2ccccc2[nH]1 | 0.00195 |
| CCCCn1nnnc1NCc1cccs1 | -1.89 |
| COc1cc(C2N=C(c3ccccc3)NO2)cc(Br)c1O (centres undefined) | -0.46 |
| Cc1ccc(/C=N/Nc2ncc(Cl)cc2Cl)s1 | 0.576 |
| Cc1nn(-c2ccc(F)cc2)c(C)c1NS(=O)(=O)c1ccc(Cl)cc1 | -0.396 |
| Cc1ccc(C2CC(=O)c3cnc(N4CCc5ccccc5C4)nc3C2)cc1 (centres undefined) | -0.128 |
| CCOc1ccccc1NC(=O)CSc1nnc(CNC(=O)COc2ccc(Cl)cc2)o1 | 0.0919 |
| COC(=O)NNC(=O)C1CCC(C(=O)NNC(=O)OC)CC1 (centres undefined) | -0.429 |
| O=C(c1ccco1)N1CCN(CC(=O)N(C2CCCCC2)C2CCS(=O)(=O)C2)CC1 (centres undefined) | 0.0392 |
| COc1ccccc1-c1nnc(SCC(=O)Nc2ccccc2)o1 | -0.359 |
| CCOC(=O)Cn1c(=NC(=O)c2ccc([N+](=O)[O-])s2)sc2ccccc21 | -0.342 |
| COc1ccc(CC(=O)Nc2nc3ccc(F)cc3s2)cc1S(=O)(=O)N1CCOCC1 | -1.36 |
| COc1cc(OC)cc(C(=O)N2CCN(Cc3ccccc3C(F)(F)F)CC2)c1 | -0.0879 |
| CC(/C=N/NC(=O)Cn1cnc2ccccc21)=C\c1ccccc1 | -0.0924 |
| CN(CC(=O)N1CCCCCC1)S(=O)(=O)c1ccc(Br)s1 | -0.194 |
| CCn1c(=O)cc(SCC(=O)N2CCN(C)CC2)c2ccccc21 | -0.148 |
| COc1ccccc1OCC(=O)NCCSCc1ccccc1Cl | 0.342 |

| Structure (SMILES) | z-score |
| --- | --- |
| Cc1nnc(SCc2cc(=O)n3[nH]cnc3n2)s1 | 0.132 |
| CCOCCCNC(=O)CCNS(=O)(=O)c1ccc(C)cc1 | -0.152 |
| Cc1ccc(-n2c(C)cc(C)c(C#N)c2=O)cc1 | -0.259 |
| CCOC(=O)c1cc2occc2n1Cc1ccc(F)cc1 | -0.169 |
| COc1ccc(NC(=O)CSc2nc3c(c(=O)n2-c2ccc(F)cc2)SCC3)cc1 | -0.848 |
| O=C(COc1ccc(Cl)cc1Cl)OCC(=O)N1CCCc2ccccc21 | -0.0629 |
| COc1ccc(Cc2nnc(NC(=O)Cn3cnc4c3c(=O)n(C)c(=O)n4C)s2)cc1OC | 0.927 |
| COc1ccc(/C=N/NC(=O)c2nc(-c3ccccc3)cc(-c3ccccc3)n2)cc1O | -0.36 |
| COc1ccc(S(=O)(=O)N2CCN(c3ccc4nnc(-c5ccc(F)cc5)n4n3)CC2)cc1 | -0.448 |
| Cc1cc(=O)n(CC(C)C)c(O)c1C#N | 0.105 |
| Cc1ccccc1Cn1cc(NC(=O)c2noc3c2CC(C(C)(C)C)CC3)cn1 (centres undefined) | -0.63 |
| COC(=O)c1ccc(COc2ccc(C3C4=C(CCCC4=O)Nc4onc(C)c43)cc2)cc1 (centres undefined) | 0.0911 |
| CNC(=S)N(Cc1cccs1)Cc1cc2cc(OC)ccc2[nH]c1=O | -0.0724 |
| Cc1ccc(C)c(NC(=S)N2CCN(c3cccc(C(F)(F)F)c3)CC2)c1 | -0.186 |
| O=C(O)CSc1nc2ccccc2o1 | 0.0704 |
| Cc1cnc(C(=O)Nc2ccccc2F)cn1 | -0.0388 |
| Cc1cccc(NC(=O)CSc2nsc(SCC(=O)Nc3cccc(C)c3)c2C#N)c1 | -0.0761 |
| CCOC(=O)C1CCN(C(=O)CSc2nnc(-c3ccco3)n2-c2ccccc2)CC1 | -0.369 |
| COc1cc(OC)c(C#N)c(S(=O)(=O)Cc2ccccc2)c1 | -0.17 |
| CCC(=O)N(C)/C=C1\Sc2ccccc2C1=O | -0.122 |
| CCCCCCCC(=O)NNC(=O)c1ccc([N+](=O)[O-])cc1 | -0.209 |
